According to article PMC4336329 (PLoS ONE, 2015):
Hit rate of the full screen: of about 310,000 compounds, about 2,200 (0.71%) showed an effect of 50% or more. The effect is printed as a negative number. The list shows a part of the results.

biological target: human ether-à-go-go-related gene (hERG) potassium channel (human, UniProt Q12809); assay: primary screen, population patch clamp on CHO cells stably expressing hERG
Sequence (Q12809 whole entry, looked up): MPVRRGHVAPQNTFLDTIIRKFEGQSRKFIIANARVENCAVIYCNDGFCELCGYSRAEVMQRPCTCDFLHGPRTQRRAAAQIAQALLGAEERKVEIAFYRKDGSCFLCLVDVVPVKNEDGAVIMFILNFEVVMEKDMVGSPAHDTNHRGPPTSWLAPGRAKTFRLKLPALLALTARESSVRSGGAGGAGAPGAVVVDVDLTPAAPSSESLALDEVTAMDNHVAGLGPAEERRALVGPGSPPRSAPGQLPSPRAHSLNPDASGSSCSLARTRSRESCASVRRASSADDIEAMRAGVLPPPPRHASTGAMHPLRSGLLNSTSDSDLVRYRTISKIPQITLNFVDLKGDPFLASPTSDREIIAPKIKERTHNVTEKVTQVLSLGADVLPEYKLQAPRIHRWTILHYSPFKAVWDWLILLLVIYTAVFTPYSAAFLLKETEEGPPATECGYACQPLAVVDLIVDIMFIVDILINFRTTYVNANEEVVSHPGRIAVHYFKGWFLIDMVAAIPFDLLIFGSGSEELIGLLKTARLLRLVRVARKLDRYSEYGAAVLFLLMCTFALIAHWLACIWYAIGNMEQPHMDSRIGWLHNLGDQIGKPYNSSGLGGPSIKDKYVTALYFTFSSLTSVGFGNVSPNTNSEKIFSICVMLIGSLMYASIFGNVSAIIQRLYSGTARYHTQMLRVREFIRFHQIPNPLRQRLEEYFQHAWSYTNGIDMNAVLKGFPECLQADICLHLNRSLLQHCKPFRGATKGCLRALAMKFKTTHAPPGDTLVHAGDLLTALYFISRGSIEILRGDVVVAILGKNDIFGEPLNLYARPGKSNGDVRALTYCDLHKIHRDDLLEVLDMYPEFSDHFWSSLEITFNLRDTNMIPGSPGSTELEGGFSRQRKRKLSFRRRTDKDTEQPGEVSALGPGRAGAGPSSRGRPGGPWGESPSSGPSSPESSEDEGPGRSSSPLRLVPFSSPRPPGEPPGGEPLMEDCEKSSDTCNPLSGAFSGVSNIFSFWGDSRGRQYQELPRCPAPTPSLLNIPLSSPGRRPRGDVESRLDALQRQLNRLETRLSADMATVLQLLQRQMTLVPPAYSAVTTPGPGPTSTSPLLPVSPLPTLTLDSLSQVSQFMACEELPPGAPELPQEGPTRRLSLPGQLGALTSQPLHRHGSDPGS

SMILES	hERG current change (%, negative = inhibition) at 1uM [%]
Cc1ccc(O)c(-c2cc(C(=O)NCc3ccncc3)[nH]n2)c1	8.05
CN(/N=C/c1ccncc1)c1cnn(-c2ccc(F)c(Cl)c2)c(=O)c1Cl	-3.91
CSc1nnc(-c2ccccc2)c(=O)[nH]1	12.4
COc1ccc(C(=O)COc2ccc(NC(C)=O)cc2)cc1	17
O=S(=O)(Nc1cccc(-c2ccc3nncn3n2)c1)c1cc(F)ccc1F	1.78
COc1ccc(C(=O)Nc2ccnn2C2CCN(C(=O)C3CCOC3)CC2)cc1 (centres unmarked)	13.1
CCCC(=O)Nc1nnc(SCC(=O)Nc2ccc3c(c2)OCCO3)s1	11.5
O=C(Nc1c(F)cc(F)cc1Br)C1CCCO1 (centres unmarked)	8.63
Cc1cc(C)nc(NN=C2CCCC2)n1	15.3
COc1ccc2cc(C(N)=O)c(=Nc3ccccc3)oc2c1	5.46
O=C(NNC(=O)C1CCCO1)c1ccccc1Cl (centres unmarked)	-5.84
CCOC(=O)N/N=C(\C)c1cccs1	16.5
COc1cc2c(C(=O)N3CCOCC3)c(CSc3ccccc3)n(C)c2cc1Br	4.68
COc1ccc(C(=O)/C=C/C(=O)N(CC(=O)NC2CCCCC2)Cc2cccs2)c(O)c1	2.58
COc1ccccc1OCC(=O)NNC(=O)c1ccoc1C	29.1
Fc1ccc(Br)cc1SCCc1ccncc1	4.36
Cc1ccc(C)c(NC(=O)CSc2nnc(-c3ccccc3)o2)c1	5.58
CCc1nc2ccc(C(=O)Nc3nnc(C)s3)cc2nc1CC	15.8
O=C(CCC(=O)N/N=C/c1ccccc1O)NCc1ccccc1	10.7
O=S1(=O)[C@H]2C[C@@H]3CC[C@]2(CN1Cc1cccc(F)c1)O3	4.42
O=S(=O)(c1ccccc1)N1CCC(n2nnc3cc(F)ccc32)CC1	-10.7
CCN1C(=O)CC2(C[N+]3(C)CCC2CC3)C1=O.[Br-] (centres unmarked)	11.7
Cc1noc(C)c1COC(=O)c1cccc(S(=O)(=O)N2CCOCC2)c1	14

SMILES	hERG current change (%, negative = inhibition) at 1uM [%]
CCC1CCCCN1CCCNC(=O)CNC(=O)c1nn(-c2ccc(OC)cc2)c(=O)c2ccccc12 (centres unmarked)	6.84
COc1ccc(C(=O)OCC(=O)NC2CCCC2)cc1OC	12.8
Cc1ccc(-n2c(N)c(C(=O)N3CCCCC3)sc2=S)cc1	9.1
CCOC(=O)C1CCN(C(=O)c2cccnc2Cl)CC1	10.6
COc1ccc(S(=O)(=O)Cc2ccc(C(=O)N3CCN(c4cc(C)ccc4C)CC3)o2)cc1	6.46
CCn1c(C)nc2cc(S(=O)(=O)N3CCCC3)ccc21	12.7
CN(C(=O)C1CCOC1)c1nnc(-c2cccnc2)s1 (centres unmarked)	10.2
COCc1cc(Sc2ccc(Br)cc2)nc(-c2ccccc2)n1	13.2
CC(C)Oc1ccc(CNC(=O)C2CCCN(S(=O)(=O)N3CCOCC3)C2)cc1 (centres unmarked)	4.66
Cc1cccc(OCC(=O)O/N=C(\N)c2ccc(Cl)cc2)c1	21.2
CCCn1c(=S)[nH]c2cc(C(=O)N3CCc4ccccc43)ccc2c1=O	15
O=C(CN1C(=O)NC2(CCCCC2)C1=O)Nc1ccccc1N1CCCCC1	1.41
COc1ccc(C(=O)N2N=C(c3cccs3)CC2c2ccccc2O)cc1 (centres unmarked)	7.77
COc1ccc(C2C(C#N)=C(N)N(Nc3ccccc3)C3=C2C(=O)CC(C)(C)C3)cc1C (centres unmarked)	11.4
CCCC(=O)N1CCN(S(=O)(=O)c2cc(Cl)ccc2OC)CC1	14.1
CC(C)(C)C(=O)N1CCN(c2ccnc3cc(Cl)ccc23)CC1	-55.8
Cc1c(Cl)c([N+](=O)[O-])nn1CCCC(=O)N(Cc1ccccc1)Cc1ccccc1	-0.459
O=C(NCC1CCCN(C(=O)Cc2ccccc2Cl)C1)c1ccc(F)cc1 (centres unmarked)	7.72
CC[C@H](C)[C@H](NC(N)=O)C(=O)Nc1ccc2c(c1)OCO2	16.9
COc1ccc(S(=O)(=O)NCCC(=O)NCc2cccs2)cc1	1.11
Cc1c(OCC(=O)N2CCN(c3ccccc3)CC2)ccc2c3c(c(=O)oc12)CCCC3	9.34
O=C(CSc1nc2c(c(=O)[nH]1)CCC2)Nc1ccc(F)cc1	20.5
Clc1ccc2nnc(Cl)n2n1	19.2

SMILES	hERG current change (%, negative = inhibition) at 1uM [%]
Cc1c(NC(=O)Nc2ccc(C(C)(C)C)cc2)c(=O)n(-c2ccccc2)n1C	24.9
NC(=O)C1CCN(c2nc(C3CC3)nc3c2nnn3Cc2ccccc2)CC1	-12.3
COc1ccc(-n2nc3c(N4CCC(C(=O)N5CCC(C)CC5)CC4)nnc(C)c3c2C)cc1	-11.6
CC(=O)Nc1ccc(OCCC[n+]2ccccc2)cc1.[Cl-]	14.5
CCCCC(CC)C(=O)Nc1cc(C(=O)NCCC)ccc1N1CCC2(CC1)CC(c1cccc(Br)c1)=NO2 (centres unmarked)	6.87
Cn1c(Oc2ccc(Cl)cc2)c(C=O)c2ccccc21	-5.47
CCc1nnc(NC(=O)CC(=O)Nc2ccccc2C(=O)O)s1	0.688
COc1ccc(CCNC(=O)CSc2nnc(-c3ccco3)c(-c3ccco3)n2)cc1OC	13.7
O=C(Nc1ccc(Cl)cc1)N1CC2CC(C1)c1cccc(=O)n1C2 (centres unmarked)	4.86
COc1cccc(C(=O)c2c[nH]c(C(=O)NCc3cccs3)c2)c1	9.58
Cc1ccccc1NC(=O)C(=O)Nc1ccccc1C	11.6
CCOC(=O)C1CCN(Cc2cccc(Oc3ccc(Cl)cc3)c2)CC1	6.37
CCN1CCN(Cc2nc3ccc([N+](=O)[O-])cc3c(=O)n2-c2ccc(OC)cc2OC)CC1	-19.3
O=C1/C(=C/c2cccc(F)c2)CSc2sccc21	4.05
CC(=O)OCC(=O)[C@@]12OC3(CCCC3)O[C@@H]1C[C@H]1[C@@H]3CCC4=CC(=O)C=C[C@]4(C)[C@@]3(F)[C@@H](O)C[C@@]12C	11.3
O=C(Nc1ccccc1C(F)(F)F)c1cc(-c2ccco2)on1	10.8
Cc1nn(C)c(C)c1CN(C)C(=O)c1cc2nc(-c3ccco3)cc(C(F)(F)F)n2n1	2.73
Cc1csc(SCC(=O)Nc2ccccc2[N+](=O)[O-])n1	5.17
COc1cccc(NS(=O)(=O)NC(=O)c2c(C)[nH]c3ccccc23)c1	17.7
CCOC(=O)N1CCC(NC(=O)c2cc(S(=O)(=O)N(CC)CC)ccc2F)CC1	6.82
Cc1cc(C(=O)NCc2ccc3c(c2)OCO3)n(-c2ccccc2)n1	-5.53
CC(Oc1ccc(Br)cc1)C(=O)N(C)CC(=O)Nc1ccc(N2CCOCC2)cc1 (centres unmarked)	9.85
COc1ccccc1N1CCN(C(=O)c2ccc(S(=O)(=O)N3CCCC3)cc2)CC1	8.12

SMILES	hERG current change (%, negative = inhibition) at 1uM [%]
CC1(C)CC(=O)C2=C(C1)N(Cc1cccnc1)C(=O)C2(NC(=O)c1cccnc1)C(F)(F)F (centres unmarked)	13.6
CCOc1ccc(NC(=O)CC(Cc2ccc(Cl)cc2)C(=O)O)cc1 (centres unmarked)	9.71
O=C(NS(=O)(=O)c1ccccc1Cl)c1ccc[nH]1	8.8
CCc1c(C)sc(NC(=S)N2CCN(C(=O)C3CCCO3)CC2)c1C(=O)OC (centres unmarked)	-3.9
CC(C)Cn1c(SCc2nnc(-c3cccs3)o2)nc(O)cc1=O	13.7
O=C(CSc1nc2ccccc2nc1SCC(=O)N1CCOCC1)N1CCOCC1	4.89
CC(=O)/C(N=Nc1cccc(C(F)(F)F)c1)=C(\C)O	14.9
CCCOc1ccc(/C=N/Nc2ccccc2[N+](=O)[O-])c(O)c1	14
O=C(Nc1cccc(Cl)c1)c1nc[nH]c1C(=O)N1CCc2ccccc2C1	15.7
Cc1ccc(C)c(-n2nnnc2SCC(=O)NCCC2=CCCCC2)c1	11.6
CCOC(=O)N1CCOCCOCCN(C(=O)OCC)CCOCC1	6.49
COc1ccc(CCNC(=O)C2(c3ccccc3)CC2)cc1	14.1
Cc1ccc(-c2nc(C(=O)NC3CCCCCC3)no2)cc1	11.4
CCN(CC)S(=O)(=O)c1ccc(N2C(=O)CC2(/C=C/c2ccccc2)C(=O)NC2CCCC2)cc1 (centres unmarked)	15.5
COc1cc(O)sc1C=Nc1ccc(Cl)cc1Cl	7.61
Cc1ccc(C)c(OCC(=O)Nc2nc3ccc([N+](=O)[O-])cc3s2)c1	-0.416
C=C(C)[C@@H]1CC=C(CN2CCN(Cc3ccccc3)CC2)CC1	4.74
Cc1cccc(C)c1NC(=S)N1CCCN(Cc2ccc(F)cc2)C1	11.2
CC1CN(C(=O)c2cc(S(=O)(=O)N3CCCCC3)ccc2Cl)CC(C)O1 (centres unmarked)	1.95
CCC(=O)Nc1cccc(NC(=O)c2ccccc2Cl)c1	7.95
